Source: PubChem BioAssay AID662 (National Center for Advancing Translational Sciences (NCATS), 2007)
About 1,800 (2.5%) of roughly 71,000 compounds were called active. The inconclusive results got no clear call from the source; some entries with a clear call stand among them for comparison. Calls follow the shape of the dose curve; as a rule, active = well fitted activation curve with a large enough effect in the signal ratio, with a control signal flat (not every such curve was filed as active); inconclusive = small, poorly fitted or top-dose-only effect, or effect the other way, or a change in a side signal; inactive = flat fitted curve, though single readings scatter; the % refers to the signal ratio. Where the call is inconclusive, the potency comes from a doubtful curve fit.

test: Cell signaling CRE-BLA (Fsk stim); conditions: CHO CRE-bla reporter (cAMP response element driving beta-lactamase), forskolin EC10, beta-lactamase ratio; activity change, negative = inhibition: at 38.2 µM (top of the series) unless noted; as to activity change, negative = inhibition: % of control where 0% means no effect
Procedure, shortened: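 AC50 values, positive or negative, reflect shifts in EC10 NKH 477-induced CRE-bla reporter activity in CHO cells. Incubation lasted 3 h at 37 °C before CCF4 substrate (2 h, room temperature) and ratiometric 460/530 nm reading.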
Potency is read from the fitted curve at half-maximal effect; tags tell the direction and shape of the fitted curve.

Compound	activity change, negative = inhibition	Potency
N[C@H](Cn1ccc(=O)n(Cc2ccccc2C(=O)O)c1=O)C(=O)O	inactive	
CC(c1ccco1)N(C(=O)c1ccc(Cl)s1)c1ccccn1 (stereo not given)	inactive	
Cc1ccc(S(=O)(=O)N2CCN(C(=O)N3CCOCC3)C2C)cc1 (stereo not given)	inconclusive: -16.1%	
c1ccc2c(SCc3cn4cccnc4n3)ncnc2c1	inconclusive: 21.2%	
CCOC(=O)c1c(-c2ccc(C)o2)csc1NC(=O)CSc1nnnn1-c1ccccc1		inconclusive: 7.94 µM [rising, partial curve]
O=C(c1cccc(F)c1)N1CCN(c2cccc(Cl)c2)CC1	inconclusive: -1.98%	
CC(=O)N(c1ccc(Cl)cc1)c1c[nH]c2ccccc12	inconclusive: -3.88% [at 7.6 µM]	
Cn1c(CSc2ccccc2)c(C#N)c2ccccc21	inconclusive: -32.7%	
O=C(CN1CCC(n2nnc3cc(F)ccc32)CC1)NC1CCCCC1	inconclusive: 17%	
CCNc1ncc2nc(C)c(=O)n(CCc3ccccc3)c2n1		active: 2 µM
CC12CN3CCN(CC(C3)C1(O)CN1CCCCC1)C2 (stereo not given)	inconclusive: -7.11% [at 7.6 µM]	
O=C(c1ccccc1)N(Cc1cccs1)C1CCS(=O)(=O)C1 (stereo not given)	inconclusive: 4.28%	
O=C(CSc1nnc(Nc2ccccc2F)s1)NCc1ccco1	inactive	
CCOc1ccc(OCC)c(N=c2oc3c(C)ncc(CO)c3cc2C(N)=O)c1	inactive	
COCCn1c(=S)[nH]c2cc(OC)c(OC)cc2c1=O		inconclusive: 25.1 µM [rising, single point]
O=C(c1cccs1)c1cn(CC(=O)N2CCc3ccccc3C2)c2ccccc12	inactive	
CNc1nc(-c2cccnc2)nc2ccccc12		inconclusive: 10 µM [rising, partial curve]
c1ccc(CCc2ccccc2-c2nc(-c3cccnc3)no2)cc1		active: 3.16 µM
COc1ccccc1C1C(C(C)=O)=C(O)C(=O)N1CCc1ccccc1 (stereo not given)	inconclusive: -10.2% [at 7.6 µM]	
COc1ccc(-n2c(SCC(=O)Nc3cc(C)on3)nc3c(c2=O)SCC3)cc1	inconclusive: -2.13%	
CN(C)c1ncc2nc(-c3cccc(C#N)c3)c(=O)n(C[C@H]3CCCO3)c2n1	inconclusive: 22.6%	
Cc1noc(C)c1C(=O)Nc1sc2c(c1C(N)=O)CCC2		inconclusive: 10 µM [rising, partial curve]

Compound	activity change, negative = inhibition	Potency
NC(=O)c1cc2n(n1)C(C(F)(F)F)CC(c1ccco1)N2 (stereo not given)	inconclusive: -13%	
COc1ccc(C(c2nnnn2Cc2cccs2)N2CCN(c3ccccc3F)CC2)cc1 (stereo not given)	inconclusive: 10.2% [cytotoxic]	
Clc1ccc2[nH]c3c(NCC4CCCO4)ncnc3c2c1 (stereo not given)		inconclusive: 1 µM [rising, partial curve]
O=S(=O)(O)[C@@H](CO)c1ccccc1 (tested in a mixture with another compound)	inactive: 7.4% [at 7.6 µM]	
CCCn1c(SCC(=O)OCc2ccccc2)nc2c1c(=O)n(C)c(=O)n2C	inconclusive: 18.6%	
C=CCn1c(N)c(C(=O)OC(C)CC)c2nc3ccccc3nc21 (stereo not given)		active: 12.6 µM
COc1cccc(-c2nnc(SCc3nc4ccccc4[nH]3)n2N)c1		inconclusive: 10 µM [rising, single point]
CCOC(=O)c1c(NC(C)=O)sc2c1CCCNC2=O		active: 12.6 µM
CCOc1cccc(-c2nnc(SCC(=O)Nc3cccc(OC)c3)n2N)c1	inactive	
O=C(CN1C(=O)c2cccc3cccc1c23)Nc1ccc2c(c1)OCO2	inconclusive: 6.33% [fluorescent]	
O=C(CN1CCN(S(=O)(=O)c2ccc(Cl)cc2)CC1)Nc1ccc2c(c1)OCO2	inconclusive: -19.7%	
CC(C)OC(=O)CSc1nnc(-c2cnccn2)n1-c1ccccc1	inconclusive: 10.6%	
CCOC(=O)c1oc2cccc(OC(C)=O)c2c1C	inactive	
COCC(=O)Nc1c(I)c(C(=O)NC[C@@H](O)CO)c(I)c(C(=O)N(C)C[C@@H](O)CO)c1I	inactive	
CC(C)COC(=O)C(C#N)c1nc2ccccc2nc1N1CCN(Cc2ccccc2)CC1 (stereo not given)	inactive	
O=C1NC2=C(C(=O)c3ccccc32)C(c2ccccc2)N1 (stereo not given)		inconclusive: 12.6 µM [rising, partial curve]
COc1cccc(CNCc2ccccn2)c1OC	inconclusive: -0.82% [at 7.6 µM]	
CCOC(=O)c1c(C)oc2ccc(O)c(CN3CCCCC3)c12		inconclusive: 10 µM [falling, single point]
Clc1cccc(Nc2nnc(-c3ccccc3)c3ccccc23)c1	inconclusive: -2.55%	
CS(=O)(=O)N1CCN(C(=O)C(Sc2ccccc2)c2ccccc2)CC1 (stereo not given)	inconclusive: -14.1%	
O=c1n(Cc2ccccc2Cl)c2sc3c(c2c2ncnn12)CCCC3		active: 0.2 µM
O=C(O)C1CCCCC1C(=O)Nc1cnn(Cc2ccccc2)c1 (stereo not given)	inconclusive: -7.49%	

Compound	activity change, negative = inhibition	Potency
c1ccc(-c2nc(NCc3cccnc3)c3oc4ccccc4c3n2)cc1	inactive	
N#CC1=C(N)C(C#N)(C#N)[C@H](c2c(F)cccc2F)[C@H]2CC3(CC=C12)OCCO3	inconclusive: 14%	
CC1=C(C(=O)OC(C)C)C(c2cccnc2)C2=C(CCCC2=O)N1 (stereo not given)		inconclusive: 15.8 µM [rising, single point]
COc1ccc(-c2nc(SC)n(C)c(=O)c2C#N)cc1OC		inconclusive: 3.98 µM [rising, partial curve]
N[C@@H](CCCCO)C(=O)O	inactive: -3.45% [at 7.6 µM]	
Cc1cc(=O)oc2cc(OC(C)C)ccc12	inconclusive: 29.3%	
CC1(C)OC(=O)C(=CNn2cnc3ccccc3c2=O)C(=O)O1	inconclusive: -8.06%	
O=C(Nc1ccccc1O)c1cc(S(=O)(=O)N2CCOCC2)ccc1Cl	inactive	
Cc1cc(C)c(NC(=O)CS(=O)CC(=O)N2CCN(c3ccc(F)cc3)CC2)c(C)c1 (stereo not given)		inconclusive: 3.98 µM [rising, single point]
O=c1c(CCc2ccccc2)nc2cnc(N3CCNCC3)nc2n1Cc1ccc(F)cc1	inconclusive: 13.7%	
COc1ccc(NC(=O)C2=C(C)NC(=O)NC2c2cccc(OC)c2OC)c(OC)c1 (stereo not given)	inconclusive: 23.9% [at 7.6 µM]	
CCOc1ccc(S(=O)(=O)N2CCN(c3ccc(C)cc3C)CC2)cc1		inconclusive: 6.31 µM [rising, partial curve]
Cc1nc2ccccc2c2oc(C(=O)NC3CC3)cc12		active: 7.94 µM
O=C1Nc2ccc(S(=O)(=O)NCc3ccco3)c3cccc1c23	inactive	
N#Cc1cc2c(nc1SCc1cccnc1)CCCC2		inconclusive: 25.1 µM [rising, single point]
COC(=O)[C@@H]1[C@H]2C[C@H]3c4[nH]c5cc(OC)ccc5c4CCN3C[C@@H]2C[C@@H](OC(=O)c2cc(OC)c(OC)c(OC)c2)[C@@H]1OC	inconclusive: -29.1%	
O=C(Nc1cccc2ncccc12)c1cccnc1	inconclusive: 24.7%	
CC(=O)N1c2ccccc2NC2=C(C(=O)CCC2)C1c1cccnc1 (stereo not given)		inconclusive: 3.98 µM [rising, partial curve]
Cc1ccc2nc(NC(=O)C3CCCN(S(=O)(=O)c4cnc[nH]4)C3)sc2c1 (stereo not given)	inconclusive: -10.4%	
O=C(O)c1ccc2cc[nH]c2c1		active: 0.2 µM
CC1=C(C(=O)O)N2C(=O)[C@@H](NC(=O)[C@@H](N)C3=CCC=CC3)[C@@H]2SC1	inactive	
CC(C)[C@H](NC(=O)NC1CCCC1)C(=O)O	inconclusive: 4.76%	

Compound	activity change, negative = inhibition	Potency
c1ccc2c(Nc3ccncc3)nc(-c3ccc4c(c3)OCO4)nc2c1		active: 12.6 µM
Cc1cccc2cc(CN(Cc3ccc(F)cc3)Cc3nnnn3C3CCCC3)c(=O)[nH]c12	inactive	
O=C(CSc1nnc2sc3ccccc3n12)NCc1ccco1	inactive	
O=C(NCc1ccco1)c1cc2sccc2n1Cc1ccccc1	inactive	
CCNC(=O)CSc1nc2ccccc2c(=O)n1CCCOC(C)C	inactive	
N=c1c2c(-c3ccccc3)c(-c3ccccc3)n(Cc3ccco3)c2ncn1CCN1CCOCC1	inactive	
CCN(CC)CCCN1C(=O)C(O)=C(C(=O)c2ccco2)C1c1ccc(C)o1 (stereo not given)	inactive	
c1ccc(-n2cnc3cc(NCc4ccncc4)ccc32)cc1		inconclusive: 25.1 µM [rising, single point]
CN(C)CCCNC(=O)c1ccc2[nH]c3ccccc3c2c1	inconclusive: -5.68%	
COc1cc2ccccc2cc1C(=O)OCC(=O)N1CCOCC1	inactive	
NC(=O)C[C@H](N)C(N)=O	inactive: 7.19% [at 7.6 µM]	
Cc1onc(-c2ccccc2Cl)c1C(=O)NCc1ccco1	inconclusive: -18.1%	
COc1ccc(C(=O)Nc2ccncc2)cc1OC		inconclusive: 10 µM [rising, partial curve]
COc1cc(C2NC(=O)NC(C)=C2C(=O)OC(C)(C)C)ccc1OCC(N)=O (stereo not given)	inactive	
COc1ccc(N2CCN(C(=O)CSc3nnc(C)c(=O)[nH]3)CC2)cc1	inactive	
CCOC(=O)c1c(NC(=O)CSc2n[nH]c(N)n2)sc(CC)c1C		inconclusive: 5.01 µM [rising, partial curve]
CN1CCN(C(CNS(=O)(=O)c2ccc(Cl)cc2)c2cccnc2)CC1 (stereo not given)		inconclusive: 2.51 µM [rising, full curve, poor fit]
Cc1ccc(C[C@H](Cc2nc3ccccc3[nH]2)c2nc3ccccc3[nH]2)cc1	inconclusive: -0.804%	
Cc1ccc(-c2ccc(=O)n(CC(=O)NCCN(C)C)n2)cc1	inactive	
